# In the supplement of paper PMC11369174, “Proteome-scale characterisation of motif-based interactome rewiring by disease mutations” (Molecular Systems Biology, 2024):
# Some of the results follow. These are enrichments in a pooled selection; single values are uncertain.
# T1: AP2B1_adaptin__P63010_700_937
# T1 chain: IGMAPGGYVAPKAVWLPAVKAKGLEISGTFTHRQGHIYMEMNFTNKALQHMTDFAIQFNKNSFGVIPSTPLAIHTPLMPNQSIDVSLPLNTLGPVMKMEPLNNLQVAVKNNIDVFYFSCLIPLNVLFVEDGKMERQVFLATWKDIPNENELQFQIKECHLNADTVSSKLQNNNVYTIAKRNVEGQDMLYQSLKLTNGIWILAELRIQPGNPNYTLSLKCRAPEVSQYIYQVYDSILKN
# T2: AP1G2_GAE__O75843_665_785
# T2 chain: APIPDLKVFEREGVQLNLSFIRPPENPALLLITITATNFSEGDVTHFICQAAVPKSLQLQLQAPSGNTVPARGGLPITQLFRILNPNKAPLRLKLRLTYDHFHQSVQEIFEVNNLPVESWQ
# T3: AHNAK2_PDZ__Q8IVF2_108_193
# T3 chain: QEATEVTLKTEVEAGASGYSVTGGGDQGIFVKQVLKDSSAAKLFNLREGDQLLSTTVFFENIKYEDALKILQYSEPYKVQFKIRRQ
# How the values were obtained:
# Assay in all cases: mean normalised NGS count of phage-displayed peptide after selection on bait (% of reads); baits are purified protein domains named by gene / domain / UniProt id / residues; peptides come from disordered regions of human proteins; higher = stronger enrichment / binding
# [1] = target: T1, AP2B1_adaptin__P63010_700_937
# [2] = target: ALYREF_RRM__Q86V81_78_183
# [3] = target: T2, AP1G2_GAE__O75843_665_785
# ABL1_SH3__P00519_60_121 = details: replicate selections in which the peptide was seen: 6
# Sequence of ABL1_SH3__P00519_60_121 (chain, as listed by the source): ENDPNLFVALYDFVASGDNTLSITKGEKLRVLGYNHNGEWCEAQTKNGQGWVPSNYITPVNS
# [4] = target: T3, AHNAK2_PDZ__Q8IVF2_108_193
# Src_SH3__P12931_87_144 = details: replicate selections in which the peptide was seen: 6
# NCK1_SH3_1_P16333_5_60 = details: replicate selections in which the peptide was seen: 4
# [5] = target: Intersectin-1_SH3_1_Q15811_740_806; details: replicate selections in which the peptide was seen: 6
# [6] = target: Intersectin-1_SH3_3_Q15811_1002_1060; details: replicate selections in which the peptide was seen: 6
# [7] = target: Intersectin-1_SH3_5_Q15811_1155_1214; details: replicate selections in which the peptide was seen: 6
# [8] = replicate selections in which the peptide was seen: 2
# [9] = replicate selections in which the peptide was seen: 3
# [10] = replicate selections in which the peptide was seen: 4
# [11] = replicate selections in which the peptide was seen: 6
binder,measurement,setting,value
SDDSNFAQFELTTFDF [MSH2 281-296 mut P43246.G287A],mean normalised NGS count,[1]; [8],0.0393
MMGRLGKVEKQVLSME [KCNQ2 619-634 wt],mean normalised NGS count,[2]; [9],0.0519
PPPREPFAPSLGSAFH [CTNND2 224-239 wt],mean normalised NGS count,[2]; [8],0.0606
DEQFGIWLDSSSPEQT [DYNC1H1 3954-3969 wt],mean normalised NGS count,[3]; [10],0.00566
PPPSYPSPKPAMDPGL [EGR2 204-219 mut P11161.T215M],mean normalised NGS count,ABL1_SH3__P00519_60_121,2.91
NPSTLGGQGGWITRSG [PKP2 480-495 mut Q99959.R490W],mean normalised NGS count,[4]; replicate selections in which the peptide was seen: 5,17.9
DWAFAQRELLEKQGID [KIF1A 618-633 wt],mean normalised NGS count,[1]; [9],0.0199
DLYSRLGEQPPPGIVA [WNK4 1162-1177 mut Q96J92.K1169E],mean normalised NGS count,[2]; [11],68.4
AHAANPSTLGGQGGWI [PKP2 476-491 mut Q99959.R490W],mean normalised NGS count,[4]; [10],1.43
PPDFAAPKAQYQAPDV [IKBKG 392-407 mut Q9Y6K9.M407V],mean normalised NGS count,ABL1_SH3__P00519_60_121,0.0571
DPLPPPPLPLQPPFGP [MARVELD2 44-59 wt],mean normalised NGS count,ABL1_SH3__P00519_60_121,7.59
same,mean normalised NGS count,Src_SH3__P12931_87_144,0.672
EVDARHIIENAKQDVD [SMARCA4 700-715 wt],mean normalised NGS count,[2]; [11],0.991
NGDDSLFFSNFSLLGA [CFTR 423-438 mut P13569.T438A],mean normalised NGS count,[1]; [10],0.0235
LKEAETWAEFAERSVT [TPM1 232-247 mut P09493.R238W],mean normalised NGS count,[1]; [9],0.169
GPPIIPPPPPIAPDSL [SMN1 239-254 wt],mean normalised NGS count,ABL1_SH3__P00519_60_121,0.423
YDEVTAFLGEWGPFQH [SLC22A5 4-19 mut O76082.R19H],mean normalised NGS count,[3]; [11],64.7
SSWIIKDDAEVERLTA [SMARCA4 1344-1359 mut P51532.P1344S],mean normalised NGS count,[4]; [8],0.232
DPLPPPPLPLQPPFGL [MARVELD2 44-59 mut Q8N4S9.P59L],mean normalised NGS count,ABL1_SH3__P00519_60_121,23.1
same,mean normalised NGS count,NCK1_SH3_1_P16333_5_60,0.232
same,mean normalised NGS count,Src_SH3__P12931_87_144,2.21
EIPPPLPVRTPESFIV [PTPN22 612-627 wt],mean normalised NGS count,ABL1_SH3__P00519_60_121,0.374
same,mean normalised NGS count,[5],3.88
same,mean normalised NGS count,[6],0.918
same,mean normalised NGS count,[7],1.83
same,mean normalised NGS count,Src_SH3__P12931_87_144,5.16
SIFGDNMNELQTFVTN [GRIN2A 954-969 mut Q12879.A968T],mean normalised NGS count,[3]; [10],0.184
SIVTNLDDSNWAAAFS [NUP107 100-115 mut P57740.M101I],mean normalised NGS count,[1]; [8],0.111
GAANDWTQFTVAGRMV [SVIL 1204-1219 mut O95425.S1209W],mean normalised NGS count,[3]; [11],0.0669
PPPLPLQPPFGLDFYS [MARVELD2 48-63 mut Q8N4S9.P59L],mean normalised NGS count,ABL1_SH3__P00519_60_121,11.7
AIESPSKDDDTVWLTY [REEP6 73-88 wt],mean normalised NGS count,[3]; [11],0.0553
SLDLRAHLNQVKKEDT [TNNI3 166-181 mut P19429.K174N],mean normalised NGS count,[2]; [9],0.0649
